# From PubChem BioAssay AID463173 (ICCB-Longwood Screening Facility, Harvard Medical School, 2010)
# In all, about 52,000 compounds went through this assay and about 1,700 (3.3%) were called active. Rule as the data show it: active = survival mostly below about 52% (no sharp cut-off); inactive = mostly above about 56%. The list shows a part of the results.
# System: Wild type
# Test: S. aureus survival, RN4220 and DeltatarO strains – OD600, teichoic acid synthesis inhibitors, primary screen (AID 463173)
# Conditions: S. aureus RN4220 wild type/DeltatarO growth, OD600, 18 h, stronger effect = lower value, screened at 18.75 µg/mL (by protocol)
row,SMILES,survival
1,O=C1CC(NCC2CCCCC2)C(=O)N1c1ccccc1 (stereo unspecified),inactive: 107%
2,COc1ccc(S(=O)(=O)NCCc2nnc3ccc(SCC(=O)Nc4ccccc4C)nn23)cc1,inactive: 114%
3,Cn1c(Cn2cnc3ccccc32)nnc1SCC(=O)CC(=O)Nc1ccccc1,inactive: 107%
4,COc1ccc(-c2nc3sc(CCNC(=O)c4ccco4)c(C)n3n2)cc1,inactive: 71%
5,CCS(=O)(=O)Nc1ccc(-c2cn3ccsc3n2)cc1,active: -1%
6,Cn1cc(CN(C(=O)Nc2ccccc2)C2CCCCC2)c2ccccc21,active: -1%
7,COc1cc2c(cc1OC)CN(C(=O)Nc1ccccc1)CC2,inactive: 83%
8,CN(C)c1ccc(CNS(=O)(=O)c2ccc(-c3cc(C(F)(F)F)on3)s2)cc1,inactive: 75%
9,CCCCn1c(=O)c2oc3ccccc3c2n(CC(=O)Nc2ccc(CC)cc2)c1=O,inactive: 85%
10,CCn1cc2nc(SCc3cc(C)ccc3C)n(CCc3ccccc3)c(=O)c2n1,inactive: 76%
11,Cc1cccc(N2CCN(S(=O)(=O)c3c(C)nc4scc(C)n4c3=O)CC2)c1C,inactive: 133%
12,COc1ccccc1NC(=O)c1ccc(COc2ccc(C)c(C)c2)o1,active: 0%
13,Cc1ccccc1NC(=O)CN1CCCC1,inactive: 110%
14,CCCCn1c(=N)n(CCCOc2ccc(F)cc2)c2ccccc21,inactive: 52%
15,CC1CCN(C(c2ccccc2)c2sc3nc(-c4ccco4)nn3c2O)CC1 (stereo unspecified),inactive: 68%
16,O=C(CSc1nc(-c2ccccc2)cn1-c1ccccc1F)Nc1ccc(F)cc1,inactive: 68%
17,COc1ccc(CNS(=O)(=O)c2cc3c(cc2Cl)N(C(C)=O)CCO3)cc1,inactive: 85%
18,COc1ccc(-c2nnc(SC(C)C)n2-c2ccccc2)cc1,inactive: 115%
19,COc1ccc(NC(=O)CSc2nc(-c3cc(OC)c(OC)c(OC)c3)[nH]c2-c2ccc(F)cc2)cc1,inactive: 67%
20,COc1cc(NC(=O)CN2CCN(S(=O)(=O)c3ccc(Br)cc3)CC2)cc(OC)c1,inactive: 124%
21,Cc1ccc(Nc2cc(C(=O)NCCc3ccccc3)c3ccccc3n2)c(C)c1,inactive: 88%
22,O=C(Cn1c(C(=O)NCC2CCCO2)cc2sccc21)c1ccccc1 (stereo unspecified),inactive: 110%
23,CCCCC(=O)Nc1c(C(=O)N2CCN(c3ccccc3F)CC2)oc2ccccc12,inactive: 82%

row,SMILES,survival
1,O=C(Cn1nc(-c2ccc(Cl)cc2)c2ccccc2c1=O)Nc1cccc(Br)c1,inactive: 61%
2,CSc1ccccc1NC(=O)CSc1ncccn1,inactive: 112%
3,O=C(Nc1cccc(F)c1)C1CCCN(S(=O)(=O)c2cccc3cccnc23)C1 (stereo unspecified),inactive: 67%
4,Cc1ccccc1Cn1c(COc2ccc(Cl)cc2)nc2ccccc21,inactive: 130%
5,Cc1nc2ccc(S(=O)(=O)N(C)CC(=O)Nc3ccc(C(C)C)cc3)cc2s1,inactive: 131%
6,Cc1nc(C)c(CC(=O)O)c(=O)[nH]1,inactive: 112%
7,COc1ccc(CNC(=O)C2CCN(c3nnc(-n4c(C)ccc4C)s3)CC2)c(OC)c1,inactive: 79%
8,CC1CCN(S(=O)(=O)c2ccc3c(c2)c(=O)c(C(=O)N2CCN(c4cccc(Cl)c4)CC2)cn3C)CC1,inactive: 94%
9,O=c1c2cc3c(cc2nc2sc(Nc4ccccc4)nn12)OCO3,inactive: 72%
10,Cc1ccc(-n2ncc(C(=O)NCCN3CCc4ccccc4C3)c2C2CCN(C(=O)OC(C)(C)C)CC2)cc1C,inactive: 71%
11,COc1ccc(NC(=O)CN2CCN(CC(=O)Nc3ccccc3F)CC2)c(OC)c1,inactive: 91%
12,O=C(CN(Cc1ccccc1)C(=O)Cn1nnc(-c2ccc(F)cc2)n1)NC1CCCC1,inactive: 111%
13,O=C1c2ccccc2-c2onc3c(Oc4ccccc4)cc(O)c1c23,inactive: 115%
14,COc1ccc(S(=O)(=O)c2c(Nc3cccc(C)c3C)sc(C(=O)c3ccccc3)c2N)cc1,inactive: 94%
15,COc1ccc(-c2nc(SCC(=O)NC(C)CCc3ccccc3)n[nH]2)cc1 (stereo unspecified),active: -1%
16,CCN(CC)C1=C(C(=O)c2ccccc2)NS(=O)(=O)c2ccccc21,inactive: 103%
17,COC(=O)c1ccc(NC(=O)CSc2cn(CC(=O)N3CCCCC3)c3ccccc23)cc1,inactive: 89%
18,CCN(c1ccccc1)S(=O)(=O)c1c(C)nc2scc(C)n2c1=O,inactive: 74%
19,COc1ccc(N2CCN(c3ncnc4c3cnn4-c3ccc(F)cc3)CC2)cc1,inactive: 112%
20,CCOC(=O)c1c(C)oc2nc(C)nc(NCCc3ccc(OCC)c(OCC)c3)c12,inactive: 73%
21,CCc1ccccc1NC(=O)CCCSc1nc(-c2ccco2)cc(C(F)(F)F)n1,inactive: 79%
22,COc1ccc(NC(=O)C2=CC(c3ccco3)=NS(=O)(=O)N2C)cc1OC,inactive: 88%
23,CCOCCc1nn2c(=O)cc(COC(=O)c3ccc(NC(=O)C4CCCCC4)cc3)nc2s1,inactive: 82%

row,SMILES,survival
1,CCN(c1ccccc1)S(=O)(=O)c1nnc(NC(=O)c2ccccc2OC)s1,inactive: 71%
2,COc1ccccc1CNc1nc2ccc(C)cc2n2nnnc12,active: -1%
3,Cc1nn(-c2ccccc2)c(OC(=O)c2ccccc2Br)c1S(=O)(=O)c1ccccc1,inactive: 59%
4,Cc1cc(NC(=O)c2ccc3c(c2)N(Cc2cccc(Cl)c2)C(=O)c2ccccc2S3(=O)=O)ccc1Br,inactive: 111%
5,O=C(CS(=O)(=O)c1cccc2nsnc12)N1CCN(c2ccccc2F)CC1,inactive: 94%
6,O=C(Nc1ccc(Cl)cc1)C1CCC(CNS(=O)(=O)c2ccc(Br)s2)CC1 (stereo unspecified),inactive: 88%
7,CC1=C(C(=O)Nc2ccccc2Cl)C(c2cccc(O)c2)n2ncnc2N1 (stereo unspecified),inactive: 130%
8,O=C1CC(c2c(Cl)cccc2Cl)c2c(ccc3ccccc23)N1 (stereo unspecified),inactive: 73%
9,O=C(Nc1ccccc1C(F)(F)F)c1ncoc1-c1ccco1,inactive: 93%
10,COc1ccc(-c2cc(C(F)(F)F)nc(SCCC(=O)Nc3ccc(NC(C)=O)cc3)n2)cc1,inactive: 79%
11,COc1cc(C2C(=O)N(C3CCCCC3)CC(=O)N2CCc2ccccc2)ccc1OC(C)C (stereo unspecified),inactive: 89%
12,CCCCN(C)CCCNC(=O)C1CCN(S(=O)(=O)CCC)CC1,inactive: 77%
13,COc1ccc(CNC(=O)c2cc(Nc3ccccc3C)nc3ccccc23)cc1,inactive: 85%
14,CCN(CC)c1ccc(CNCCCSc2nnnn2C)cc1,inactive: 89%
15,Cc1oc(-c2cccc(Cl)c2)nc1CN1CCC(C(=O)NC(C)c2ccccc2)CC1 (stereo unspecified),inactive: 88%
16,COc1ccc(Cl)cc1NC(=O)CSc1cn(CC(=O)N2CCCCC2)c2ccccc12,inactive: 86%
17,CCOc1ccc(CN2C(=O)c3ccccc3Sc3ccc(C(=O)NCc4ccco4)cc32)cc1,inactive: 89%
18,Cc1oc2ncn(C)c(=O)c2c1C(=O)N1CCN(c2cccc(C(F)(F)F)c2)CC1,inactive: 82%
19,COCCNc1nc2c(c(=O)n(C)c(=O)n2C)n1Cc1c(F)cccc1Cl,inactive: 64%
20,COc1ccc(C(=O)Nc2ccccc2C(=O)NCc2ccco2)cc1,inactive: 107%
21,CCc1ccc(NC(=O)CC2C(=O)NCCN2C(=O)c2ccc(F)cc2)cc1 (stereo unspecified),inactive: 90%
22,CCc1ccc(NC(=O)NCCc2c(C)nn(C)c2C)cc1,inactive: 81%
23,COc1ccc(S(=O)(=O)c2c(Nc3ccccc3F)sc(C(=O)c3cccc(OC)c3)c2N)cc1,inactive: 113%

row,SMILES,survival
1,COc1ccccc1CNS(=O)(=O)Cc1ccccc1,inactive: 121%
2,Cc1cccc(NC(=O)CSc2nnc(NC(=O)Nc3ccccc3)s2)c1C,inactive: 78%
3,CSc1ccc(C2C(C(=O)Nc3ccccc3)=C(C)Nc3nc4ccccc4n32)cc1 (stereo unspecified),inactive: 69%
4,COc1cccc(C2CC(=O)Nc3c2ccc(C)c3C)c1OC (stereo unspecified),inactive: 87%
5,CCOc1ccccc1CNC(=O)c1ccc(CS(=O)Cc2cccc(Cl)c2)o1 (stereo unspecified),inactive: 82%
6,CSc1ccc(CNC(=O)Cn2nc(N3CCN(c4ccccc4)CC3)ccc2=O)cc1,inactive: 64%
7,Cc1ccccc1CNC(=O)C(=O)NCC(c1ccco1)S(=O)(=O)c1cccs1 (stereo unspecified),inactive: 79%
8,COc1cccc(NC(=O)CSc2nnc(-c3cccc(OC)c3)o2)c1,inactive: 90%
9,Cc1ccc(NC(=O)CSc2ncc(-c3ccccc3)[nH]2)cc1,inactive: 62%
10,CCOC(=O)c1c(C)[nH]c(C)c1S(=O)(=O)N1CCCC(C(=O)Nc2cc(C)ccc2C)C1 (stereo unspecified),inactive: 51%
11,CCC(=O)N1CCc2cc(CNC(=O)c3ccccc3C)ccc21,inactive: 90%
12,CCCCNC(=O)CSc1nc2nc(C)c(Cc3c(F)cccc3Cl)c(C)n2n1,inactive: 59%
13,CCc1ccc(-n2c(=O)c3sc4ccccc4c3n(CC(=O)N(CC)Cc3ccccc3)c2=O)cc1,inactive: 85%
14,O=C(Nc1ccc2nc(SCC(=O)N3CCc4ccccc43)sc2c1)c1ccccc1,inactive: 82%
15,Cc1ccc2sc(-c3ccc(N)cc3)nc2c1,inactive: 19%
16,Cc1ccc(-c2nnc(Nc3ccccc3O)c3ccccc23)cc1,inactive: 86%
17,Cc1ccc(Cl)cc1N1CCN(C(=O)c2cnn(C)c2C2CCN(C(=O)OC(C)(C)C)CC2)CC1,inactive: 74%
18,O=C(Nc1cc2c(cc1C(=O)c1ccccc1Br)OCCO2)c1ccccc1,inactive: 66%
19,CC(=O)c1ccc(NC(=O)COc2ccccc2-c2nc(-c3ccc(C)cc3)no2)cc1,inactive: 84%
20,O=C(NC1CC(=O)N(c2cccc(F)c2)C1)c1ccc2c(c1)OCO2 (stereo unspecified),inactive: 70%
21,CCc1ccc(N(CC(=O)N2CCCCC2)S(C)(=O)=O)cc1,inactive: 111%
22,Cc1ccc(OCC(=O)Nc2ccccc2C(=O)OCc2cc(=O)n3ccsc3n2)cc1,inactive: 72%
